The supplement of paper PMC10441789
The other results are listed elsewhere or left out. Antibody binding of pooled human sera (four to six donors per pool; dilution not stated) to peptides of the Trypanosoma cruzi antigen TSSA on microarrays. Quantile-normalised fluorescence in arbitrary units, mean of duplicate arrays; higher = more binding. No active / inactive call. The uninfected pools are read here as the healthy donors of the same country. The strongest signals lie near the top of the scale (about 60,000).

Experiments:
Assay in all cases: antibody binding signal (normalised fluorescence) (arbitrary fluorescence units); higher = stronger serum antibody binding to peptide
[1] = test system: pooled sera of chronic Chagas disease patients, Argentina
Description: (§1)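 Microarray of 15-residue peptides over residues 30-55 of Trypanosoma cruzi TSSAII, each with 1 to 10 substitutions at naturally variable positions, probed with one serum pool per country.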

[2] = test system: pooled sera of chronic Chagas disease patients, Bolivia
Description: as §1

[3] = test system: pooled sera of chronic Chagas disease patients, Brazil
Description: as §1

[4] = test system: pooled sera of chronic Chagas disease patients, Colombia
Description: as §1

[5] = test system: pooled sera of chronic Chagas disease patients, Mexico
Description: as §1

[6] = test system: pooled sera of chronic Chagas disease patients, USA
Description: as §1

[7] = test system: pooled sera of uninfected people, Argentina
Description: as §1

[8] = test system: pooled sera of uninfected people, Bolivia
Description: as §1

[9] = test system: pooled sera of uninfected people, Brazil
Description: as §1

[10] = test system: pooled sera of uninfected people, Colombia
Description: as §1

[11] = test system: pooled sera of uninfected people, Mexico
Description: as §1

[12] = test system: pooled sera of uninfected people, USA
Description: as §1

| Sequence | antibody binding signal [1] | antibody binding signal [2] | antibody binding signal [3] | antibody binding signal [4] | antibody binding signal [5] | antibody binding signal [6] | antibody binding signal [7] | antibody binding signal [8] | antibody binding signal [9] | antibody binding signal [10] | antibody binding signal [11] | antibody binding signal [12] |
| --- | --- | --- | --- | --- | --- | --- | --- | --- | --- | --- | --- | --- |
| KDNKAATGGTPSQPG | 300 | 242 | 2080 | 1100 | 254 | 244 | 467 | 1100 | 224 | 187 | 444 | 96.9 |
| STPPSGKDKKPATGE | 36800 | 4670 | 19600 | 261 | 51900 | 12400 | 897 | 736 | 134 | 339 | 147 | 129 |
| KEKKAAAGEAPSQSG | 254 | 1120 | 996 | 226 | 163 | 7700 | 100 | 108 | 96.4 | 91.1 | 92.7 | 102 |
| SGTEKKPATGGTPSP | 4400 | 789 | 3980 | 3190 | 2510 | 1900 | 328 | 1080 | 1270 | 310 | 225 | 841 |
| PSGTENKPATGGAPS | 53100 | 34100 | 47700 | 3210 | 5070 | 15600 | 2150 | 3120 | 1190 | 576 | 767 | 707 |
| NKPATGGTPSQSGAS | 563 | 563 | 3580 | 382 | 510 | 402 | 767 | 1420 | 582 | 472 | 736 | 1210 |
| ENKTAAGETPSPPGA | 195 | 875 | 865 | 256 | 314 | 2310 | 170 | 220 | 214 | 124 | 177 | 376 |
| KDKKPATGGTPSPSG | 357 | 301 | 144 | 647 | 233 | 306 | 153 | 82.2 | 208 | 151 | 74.4 | 97.8 |
| KDNKTAAGEAPSPSG | 810 | 232 | 707 | 2050 | 267 | 4350 | 474 | 161 | 172 | 273 | 87.8 | 174 |
| STPPSGKDKKTATGE | 23600 | 2250 | 3530 | 337 | 33800 | 1350 | 348 | 469 | 134 | 178 | 134 | 84.6 |
| SGKENKPAAGEAPSQ | 4990 | 16700 | 31200 | 3820 | 4680 | 18700 | 7590 | 5030 | 181 | 259 | 629 | 158 |
| GTDNKPATGGTPSQS | 1710 | 805 | 42900 | 1660 | 685 | 548 | 300 | 1080 | 753 | 252 | 651 | 161 |
| GTENKTATGGTPSQP | 33000 | 1950 | 1230 | 2270 | 1190 | 1430 | 399 | 403 | 365 | 251 | 1930 | 137 |
| PSGTDNKTATGGAPS | 14800 | 10200 | 44000 | 923 | 961 | 1080 | 343 | 683 | 1530 | 376 | 299 | 257 |
| DKKTATGETPSPSGA | 297 | 400 | 715 | 230 | 313 | 7090 | 425 | 200 | 166 | 127 | 343 | 621 |
| TPPSGKENKPATGGA | 35800 | 19600 | 12800 | 591 | 9380 | 12500 | 4050 | 2840 | 202 | 559 | 314 | 735 |
| ISTPPSGTDNKTAAG | 47800 | 43200 | 47100 | 2130 | 29700 | 21700 | 1220 | 672 | 2000 | 310 | 297 | 283 |
| EKKPATGETPSPPGA | 30600 | 23800 | 30000 | 269 | 208 | 20800 | 166 | 578 | 235 | 174 | 1680 | 787 |
| SGTDKKAATGEAPSQ | 24100 | 37100 | 31500 | 2280 | 493 | 24900 | 350 | 126 | 131 | 636 | 830 | 201 |
| PPSGTEKKTAAGGAP | 27100 | 1450 | 13100 | 7140 | 2620 | 2890 | 1000 | 412 | 173 | 240 | 187 | 350 |
| PPSGTDNKPAAGGTP | 48500 | 38500 | 48100 | 8050 | 8850 | 15600 | 855 | 899 | 1670 | 1030 | 1200 | 359 |
| GTENKAAAGGAPSQP | 39900 | 2060 | 16200 | 3760 | 1900 | 2310 | 195 | 372 | 211 | 248 | 151 | 251 |
| KEKKAAAGETPSPPG | 149 | 208 | 197 | 178 | 135 | 781 | 123 | 95.3 | 86.1 | 97.2 | 88.5 | 206 |
| KAATGEAPSQPGASS | 28100 | 16200 | 47000 | 150 | 323 | 24500 | 315 | 139 | 141 | 126 | 164 | 149 |
| SGKEKKAAAGEAPSQ | 7690 | 2560 | 6250 | 4610 | 9350 | 11800 | 199 | 159 | 92.8 | 107 | 67.3 | 92.4 |

| Sequence | antibody binding signal [1] | antibody binding signal [2] | antibody binding signal [3] | antibody binding signal [4] | antibody binding signal [5] | antibody binding signal [6] | antibody binding signal [7] | antibody binding signal [8] | antibody binding signal [9] | antibody binding signal [10] | antibody binding signal [11] | antibody binding signal [12] |
| --- | --- | --- | --- | --- | --- | --- | --- | --- | --- | --- | --- | --- |
| GKENKAATGETPSPP | 10900 | 2530 | 26800 | 12100 | 10300 | 23900 | 460 | 243 | 105 | 168 | 170 | 849 |
| NKAATGEAPSQSGAS | 14500 | 41000 | 39400 | 190 | 204 | 30800 | 480 | 797 | 341 | 303 | 557 | 857 |
| KDNKPATGEAPSQSG | 46300 | 46000 | 52300 | 268 | 237 | 43000 | 1190 | 839 | 304 | 321 | 444 | 126 |
| TPPSGTEKKTAAGGT | 26100 | 1020 | 20200 | 5200 | 6300 | 2520 | 683 | 200 | 1210 | 191 | 107 | 140 |
| TDNKPATGEAPSPPG | 41500 | 49900 | 48500 | 423 | 183 | 40600 | 861 | 606 | 314 | 160 | 293 | 129 |
| TPPSGTDNKAAAGGA | 31200 | 39300 | 47300 | 3920 | 5780 | 10200 | 1610 | 767 | 2180 | 312 | 362 | 2050 |
| TEKKTAAGETPSPSG | 576 | 247 | 315 | 495 | 470 | 3660 | 154 | 230 | 689 | 765 | 490 | 1960 |
| SGKEKKTATGETPSQ | 3380 | 377 | 4680 | 1510 | 2080 | 8650 | 347 | 257 | 107 | 136 | 198 | 75.5 |
| SGKENKPAAGEAPSP | 6010 | 4910 | 29500 | 4230 | 4750 | 17900 | 7260 | 4250 | 168 | 313 | 576 | 133 |
| SGTDKKAAAGEAPSP | 342 | 1180 | 9070 | 4870 | 529 | 11800 | 182 | 185 | 206 | 243 | 816 | 168 |
| DKKAAAGEAPSQSGA | 1530 | 6080 | 12200 | 327 | 321 | 11300 | 130 | 315 | 135 | 92.1 | 106 | 127 |
| SGKDKKTATGETPSQ | 527 | 403 | 1880 | 605 | 479 | 4590 | 285 | 121 | 104 | 316 | 97 | 109 |
| PPSGTDNKAATGGAP | 28200 | 37100 | 45600 | 1060 | 1640 | 5420 | 1310 | 1060 | 1630 | 590 | 333 | 645 |
| TEKKTATGETPSQSG | 1060 | 1020 | 4790 | 427 | 407 | 8370 | 231 | 258 | 341 | 141 | 278 | 195 |
| TPPSGKDKKTATGGA | 1710 | 370 | 450 | 620 | 26600 | 630 | 284 | 295 | 103 | 202 | 85.9 | 163 |
| SGTDNKTATGETPSQ | 667 | 1540 | 41000 | 191 | 177 | 7500 | 99.6 | 611 | 1010 | 150 | 115 | 219 |
| KEKKPAAGEAPSPPG | 267 | 225 | 3990 | 157 | 148 | 10800 | 113 | 73.2 | 123 | 77.2 | 73.3 | 370 |
| TPPSGKENKPAAGGA | 16800 | 11900 | 13400 | 1810 | 5910 | 13600 | 5800 | 2170 | 267 | 616 | 217 | 704 |
| KTATGGTPSQPGASS | 459 | 530 | 584 | 2010 | 396 | 287 | 751 | 141 | 182 | 140 | 1090 | 147 |
| KENKTAAGGTPSQPG | 472 | 222 | 448 | 2990 | 216 | 1380 | 451 | 90 | 224 | 138 | 799 | 143 |
| SGTDKKAATGETPSP | 1040 | 3150 | 13800 | 1900 | 240 | 9540 | 570 | 229 | 230 | 445 | 660 | 1300 |
| PSGKEKKTAAGGAPS | 6230 | 702 | 6120 | 11300 | 8940 | 6990 | 336 | 154 | 113 | 201 | 117 | 135 |
| SGKENKTATGGTPSQ | 3440 | 692 | 17600 | 5100 | 4090 | 19000 | 8180 | 1640 | 167 | 434 | 371 | 279 |
| PPSGKENKAATGGAP | 5090 | 2700 | 5750 | 1210 | 2600 | 3890 | 3970 | 1630 | 152 | 719 | 260 | 456 |
| STPPSGKENKPATGG | 49400 | 29200 | 28200 | 441 | 15800 | 15300 | 4270 | 2580 | 386 | 743 | 367 | 893 |
